Test results: paper PMC4336329 (PLoS ONE, 2015)
Screen size: about 310,000 compounds; about 14,000 (4.5%) showed an effect of 50% or more. The effect is printed as a negative number. The list shows a part of the results.

biological target: human ether-à-go-go-related gene (hERG) potassium channel (human, UniProt Q12809); assay: primary screen, population patch clamp on CHO cells stably expressing hERG
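Note: peak tail current of the secondary pulse compared with the same well before compound.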

Sequence of human ether-à-go-go-related gene (hERG) potassium channel (Q12809 whole entry, looked up): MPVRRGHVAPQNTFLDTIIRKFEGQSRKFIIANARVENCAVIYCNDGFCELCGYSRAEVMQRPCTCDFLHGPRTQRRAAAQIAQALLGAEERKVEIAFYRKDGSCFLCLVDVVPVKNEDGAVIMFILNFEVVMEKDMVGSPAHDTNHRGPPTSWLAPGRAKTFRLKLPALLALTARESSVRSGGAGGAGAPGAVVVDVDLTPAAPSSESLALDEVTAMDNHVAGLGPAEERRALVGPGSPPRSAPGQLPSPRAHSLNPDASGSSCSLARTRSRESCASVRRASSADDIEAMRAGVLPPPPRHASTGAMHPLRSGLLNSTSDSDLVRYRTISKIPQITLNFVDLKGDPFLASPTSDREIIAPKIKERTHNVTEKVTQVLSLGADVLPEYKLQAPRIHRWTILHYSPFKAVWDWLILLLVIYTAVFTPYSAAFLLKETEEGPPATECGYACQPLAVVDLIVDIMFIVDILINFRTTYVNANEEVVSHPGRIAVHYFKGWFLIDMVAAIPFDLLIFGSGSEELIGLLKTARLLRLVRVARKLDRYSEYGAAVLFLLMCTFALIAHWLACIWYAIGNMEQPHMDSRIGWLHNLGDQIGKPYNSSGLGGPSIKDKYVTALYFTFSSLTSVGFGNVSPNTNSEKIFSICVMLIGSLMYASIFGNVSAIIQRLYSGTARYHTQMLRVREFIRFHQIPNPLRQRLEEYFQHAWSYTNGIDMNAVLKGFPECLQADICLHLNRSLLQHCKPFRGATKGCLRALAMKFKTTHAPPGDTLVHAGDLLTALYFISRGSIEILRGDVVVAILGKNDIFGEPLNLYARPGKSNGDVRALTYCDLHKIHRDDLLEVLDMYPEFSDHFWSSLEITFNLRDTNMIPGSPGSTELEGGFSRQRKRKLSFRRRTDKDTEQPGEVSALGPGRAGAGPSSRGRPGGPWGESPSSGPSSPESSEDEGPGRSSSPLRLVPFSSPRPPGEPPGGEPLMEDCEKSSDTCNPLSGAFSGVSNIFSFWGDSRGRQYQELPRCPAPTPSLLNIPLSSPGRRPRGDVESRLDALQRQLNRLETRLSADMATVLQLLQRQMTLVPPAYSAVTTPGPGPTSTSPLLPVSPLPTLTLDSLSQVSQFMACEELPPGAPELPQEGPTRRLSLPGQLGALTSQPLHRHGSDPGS

SMILES	hERG current change (%, negative = inhibition) at 10uM
COc1ccc(-c2onc(C)c2-c2ccc(C(=O)OC(C)C)o2)c(O)c1	-6.38%
Cc1ccc(C(=O)COC(=O)COc2ccc(C)c(C)c2)cc1	-4.39%
CC1CC(C)CN(CC(=O)N2c3ccccc3CCc3ccccc32)C1.O=C(O)C(=O)O (stereo not drawn)	3.57%
CC(=O)Nc1ccc(NC(=O)C(C)OC(=O)CCc2c[nH]c3ccccc23)cc1 (stereo not drawn)	-1.46%
CC(C)Oc1nnnn1-c1ccccc1	4.64%
CC(C)c1ccc(N(C(=O)c2snc(C(N)=O)c2N)C(C(=O)NC2CCCC2)c2ccncc2)cc1 (stereo not drawn)	7.77%
CC1CCN(CC(=O)NCCc2ccc(F)cc2)CC1.O=C(O)C(=O)O	-3.7%
COC(=O)CCC(=O)N1CCCC(C(=O)c2ccc(Cl)cc2C)C1 (stereo not drawn)	-5.75%
CC(=O)Nc1ccc(C(=O)N2CCCc3ccccc32)cc1	-6.92%
NC(=O)c1nn(-c2ccccc2)c(=O)cc1O	-17.8%
Cc1ccc(-c2nn(-c3ccccn3)c(=O)c3ccccc23)cc1	-15.6%
COc1cc(/C=N/n2cnnc2)ccc1OCc1ccccc1	6.55%
Cc1ccc(C(=O)Nc2ccccc2C(=O)NCC2CCCO2)cc1 (stereo not drawn)	-16.1%
CC1CCCC(NC(=S)Nc2ccc(SC(F)F)cc2)C1C (stereo not drawn)	-7.43%
Cc1ccc(C(=O)NC2CCCCNC2=O)cc1C (stereo not drawn)	5.77%
Cc1nc(/C=C/c2ccccc2)[nH]c(=O)c1-c1ccccc1	10.1%
COc1cc(OC)c(C(=O)Nc2cc(Cl)ccc2-n2cncn2)cc1OC	-55%
NC(=S)N/N=C/c1cccc(/C=N/NC(N)=S)c1	11%
Cc1cc(C)n2nc(C(=O)OCC(=O)NC3CCCCC3)nc2n1	1.56%
CCc1noc(C)c1C(=O)N(CCC(C)C)c1c(N)n(Cc2ccccc2)c(=O)[nH]c1=O	-2.55%
CCN1CCN(Cc2ccc(NC(=O)c3ccc(C)c(NC(=O)c4cccc(-c5cn[nH]c(=O)c5)c4)c3)cc2C(F)(F)F)CC1.O=C(O)C(F)(F)F	-5.8%
CN(C)C(/C=C/Nc1ccc(C#N)cc1)=C(C#N)C#N	-23.2%
Cc1cc(C)cc(NC(=O)CSc2nc3ccncc3[nH]2)c1	8.99%

SMILES	hERG current change (%, negative = inhibition) at 10uM
Cc1cc(Cl)ccc1OCCn1cncn1	-8.04%
CCn1cc(CNC(=O)c2cccc([N+](=O)[O-])c2)cn1	-11.1%
CC(C)Sc1nnc([C@@H](N)Cc2ccccc2)o1.Cl	5.89%
O=c1cc(CO)oc(CN2CCN(Cc3ccccc3)CC2)c1O	8.06%
Cc1nc2ccccc2n1C1CC(=O)N(N(C)C)C1=O (stereo not drawn)	7.61%
O=CN1CCN(C(=S)Nc2ccc(OC(F)F)cc2)CC1	-9.52%
COc1cc(OC)c(C2C(C(=O)O)c3ccccc3C(=O)N2C)cc1OC (stereo not drawn)	10.3%
CSc1ccc(Cl)c(C(=O)Nc2ccc(N3CCOCC3)cc2)c1	-1.67%
COc1ccc(CNCCc2c[nH]c3ccccc23)c(OC)c1C.O=C(O)C(=O)O	-60.3%
c1c(C2CCCCC2)n[nH]c1CN1CCCCC1	-53.9%
O=C1/C(=C/c2cccnc2)Cc2ccc(Cl)cc21	2.02%
Cc1ccc(C(C[N+](=O)[O-])Sc2ccc(N)cc2)cc1 (stereo not drawn)	9.31%
O=C(Nc1ccc(Br)cc1)N1CCc2ccccc2C1	2.91%
Cc1ccc(S(=O)(=O)c2nc(C)c3c(n2)CCC3)cc1	3.61%
OCC(O)CN(c1ccccc1)c1ccccc1 (stereo not drawn)	2.58%
O=C(NCCc1ccco1)C(=O)NCC1CCCN1S(=O)(=O)c1ccccc1 (stereo not drawn)	-33.5%
COc1cccc(/C=C/C(=C2/C(=O)N(c3ccccc3)N=C2C)c2ccccc2)c1OC	-20.5%
Cc1ccccc1CNC(=O)CCCn1ncn2c(cc3occc32)c1=O	-14.7%
O=C(Nc1nnc(-c2ccccc2F)s1)C1CCCO1 (stereo not drawn)	0.46%
Cl.c1ccc(COC(CN2CCCCCC2)CN2CCCCCC2)cc1	-63.6%
COCCn1cnc2c1c(=O)n(Cc1ccccc1C#N)c(=O)n2Cc1ccccc1	-11.4%
Cc1cccc(C(=O)OC(C)CN2CCOCC2)c1.Cl (stereo not drawn)	-0.467%
CN(CCC#N)CC(=O)Nc1ccc(NC(=O)CN(C)CCC#N)cc1	-4.53%

SMILES	hERG current change (%, negative = inhibition) at 10uM
Cc1ccccc1NC(=O)CSc1ccc2nnc(-c3ccccn3)n2n1	-23.8%
Cc1nc(C(=O)Nc2ccc(Cl)cc2)sc1C1(C)CC(c2ccccc2)=NO1 (stereo not drawn)	4.4%
CC(=O)Nc1ccc(NC(=O)CCc2nc3sc4c(c3c(=O)[nH]2)CCCC4)cc1	3.55%
O=C(Nc1cccnc1)Nc1ccccc1Cl	-0.946%
Cc1ccc(OCc2cc(C(=O)NC3CCCCC3)no2)cn1	12.8%
O=C(O)c1ccccc1C(=O)Nc1ccc(S(=O)(=O)N2CCCC2)cc1	22.3%
O=C(COc1ccccc1Cc1ccccc1)Nc1cccnc1	-26.4%
CC1=C(C(=O)OCc2ccccc2)C(c2cccc([N+](=O)[O-])c2)NC(=O)N1CCCCCC(=O)O (stereo not drawn)	5.86%
CC1Cc2ccccc2N1C(=O)COC(=O)/C=C/c1cccc(F)c1 (stereo not drawn)	1.23%
CCc1cc(S(N)(=O)=O)cc(CC)c1NC(C)=O	7.59%
CCOC(=O)CSc1nc2sc3c(c2c(=O)n1-c1ccc(C)cc1)CCN(C)C3	-22.4%
N#Cc1nc(-c2cccs2)oc1NCCCN1CCOCC1	-9.06%
Cc1ccc(-c2nnc(N3CCN(CCO)CC3)c3ccccc23)cc1	-58.4%
O=C(c1ccccc1F)N1CCN(S(=O)(=O)c2ccc(S(=O)(=O)N3CCCCCC3)cc2)CC1	0.847%
COc1cc(C(=O)OC2CCN(C)CC2)cc(OC)c1OC.Cl	-5.62%
Cc1ccccc1-n1nnc2c(=O)oc3ccccc3c21	8.96%
CN1CCN(CC(=O)NN(Cc2ccccc2)c2ccccc2)CC1.O=C(O)C(=O)O	-14.2%
C/C(=N\NC(=O)c1cc(C)nc2ccccc12)c1ccco1	4.8%
Cc1onc(-c2c(F)cccc2Cl)c1C(=O)NC(C)c1ccccc1 (stereo not drawn)	-4.83%
Cc1ccc(Nc2nc3ccccc3c(=O)s2)cc1	17.9%
COc1cc(NC(=S)N2c3ccccc3CC2C)cc(OC)c1 (stereo not drawn)	9.02%
CC1=CC(=C2N=C(c3ccccc3)OC2=O)C=C(C)O1	-13.5%
CCCC[N+]12CCC(CC1)C(C(=O)c1cccs1)C2.[Br-] (stereo not drawn)	1.45%

SMILES	hERG current change (%, negative = inhibition) at 10uM
Cc1cc(C)n(CCN(C)Cc2nc(Cc3ccccc3F)no2)n1	4.71%
CCCCCCN(C(=O)CCCCCN1C(=O)NC(c2ccc(-c3ccccc3)cc2)C(C(=O)OCc2ccccc2)=C1C)C(C(=O)NCCCC)c1ccc(OCC(=O)OC)c(C(=O)OC)c1 (stereo not drawn)	21.9%
CCOc1ccc(N(CC(=O)NCc2ccc(Cl)cc2)S(=O)(=O)c2ccccc2)cc1	20.4%
COc1ccccc1N1CC(C)(C)C(=O)N(C(=O)c2ccc(Cl)cc2)C1=S	2.76%
Cc1ccc(C)c(NC(=O)c2cc(S(=O)(=O)N3CCOCC3)cn2C)c1	-1.16%
O=S(=O)(NCCc1csc(-c2ccc(C(F)(F)F)cc2)n1)c1ccc2c(c1)OCCO2	3.21%
CCC(C(=O)O)N1C(=O)C2CCCCC2C1=O (stereo not drawn)	2.86%
Fc1c(CSC(=S)N2CCOCC2)cccc1CSC(=S)N1CCOCC1	12.9%
CCS(=O)(=O)Nc1ccc2[nH]c(=O)[nH]c2c1	42.4%
Cc1ccc(S(=O)(=O)N2CCC(N3CCC(C)CC3)CC2)cc1	-29.1%
Cc1ccccc1C(=O)N1CCC(n2nccc2NC(=O)C2CC2)CC1	10.3%
O=C(Cn1nc(C(=O)O)c2ccccc2c1=O)c1cc(F)ccc1F	22.5%
O=C(CNC(=O)c1ccccc1Cl)N/N=C/c1ccc2c(c1)OCO2	8.33%
Cc1cc(N2CCCCC2)c(F)cc1[N+](=O)[O-]	-6.63%
O=C(NC1CCCCC1)c1cc(Cl)ccc1[N+](=O)[O-]	-4.63%
Cc1ccc(C)c(NC(=S)c2ccc3ccccc3n2)c1	-6.88%
COc1ccc2oc(C(=O)OCC(=O)N3C(C)CCCC3C)c(C)c2c1 (stereo not drawn)	-14.8%
Cc1ccc(NC(=O)CCc2nc3sc4c(c3c(=O)[nH]2)CCCC4)nc1	8.92%
O=C1CCNc2c(Cl)cccc21	11.4%
Cc1nc([N+](=O)[O-])c(Br)n1CC(=O)c1ccccc1	-11.9%
COc1ccc(C(=O)C2CCN(C(=S)NCC3CCCO3)CC2)cc1 (stereo not drawn)	-7.23%
